Experimental data: the supplement of paper PMC11283458
This is one part of the list. Single values are uncertain, as repeats are few or missing.

test system: Mef2d microexon (dual-luciferase reporter); experiment: delta PSI of alternative exon relative to 0.4% DMSO control (RT-PCR) (percentage points); higher = more exon inclusion; settings: concentration: not stated (optimised per compound); Neuro-2a
Method: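 Reads PSI of the Mef2d reporter microexon and of endogenous mouse neural alternative exons. dPSI is relative to the 0.4% DMSO control, single replicate.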
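Also: exons read include endogenous Mef2d, Mast2, Ergic3 and Trappc9 microexons plus the longer neural-regulated Zdhhc20, Mgrn1 and Asph cassette exons, alongside the reporter microexon.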

| SMILES | delta PSI of alternative exon |
| --- | --- |
| O=C(C=c1[nH]c(=O)c(=Cc2ccccc2O)s1)c1cccs1 | -7.79 |
| O=C(/C=C/c1ccc(CN(CCO)CCc2c[nH]c3ccccc23)cc1)NO | 15.8 |
| CCOC(=O)c1cnn2c1nc(N1CCCC1)c1ccccc12 | -0.738 |
| COc1cc2c(cc1O)CC[C@@H]1[C@@H]2CC[C@]2(C)[C@@H](O)CC[C@@H]12 [2-Methoxyestradiol] | -1.92 |
| Cc1ccc(S(=O)(=O)N/N=C/c2cc(Cl)ccc2O)cc1 | 15.7 |
| COCCCNC(=S)N/N=C/c1cccc(OC)c1O | 2.73 |
| N#CC1=C(N)Oc2ccc3ccccc3c2C1c1cccc(F)c1 (configuration not stated) | -2.77 |
| C(=C\c1ccccc1)/C(=N/Nc1ccccc1)c1ccccc1 | 1.03 |
| CC(=O)c1sc(-c2ccccc2)cc1NS(=O)(=O)c1ccc(C)c(Cl)c1 | -0.528 |
| N#Cc1c(-c2cccs2)oc(-n2cccc2)c1-c1cc(Br)cs1 | 3.66 |
| N#CC1(C#N)C(C#N)(C#N)C12CCCCC2 | -4.05 |
| Cc1onc(-c2c(Cl)cccc2Cl)c1C(=O)SCC(=O)Nc1ccc(Cl)cc1 | -8.55 |
| S=C(NN=Cc1ccccn1)NC1CC2C=CC1C2 (configuration not stated) | 3.22 |
| c1ccc(C2=Nc3ccccc3NC(c3ccccc3)C2)cc1 (configuration not stated) | -0.674 |
| COc1cc(OC)c(/C=C2/C(=O)Nc3ccccc32)c(OC)c1 | -5.13 |
| C(=NNc1ccc2ccccc2n1)c1ccccn1 | 1.22 |

| SMILES | delta PSI of alternative exon |
| --- | --- |
| O=C(CCCCCN1C(=O)c2cccc3cccc(c23)C1=O)NO [Scriptaid] | 19 |
| COc1cc(/C=C/C(=O)N2CCC=CC2=O)cc(OC)c1OC [Piperlongumine] | 1.36 |
| CC(/C=C/C(=O)NO)=C\[C@@H](C)C(=O)c1ccc(N(C)C)cc1 [Trichostatin A] | 16.3 |
| N#CC1(C#N)C(c2ccc(Br)s2)C(C(=O)c2ccccc2)N2c3ccccc3C=CC21 (configuration not stated) | -5.5 |
| O=[N+]([O-])c1ccc(N2CCCN(C(=S)Nc3ccc(Cl)cc3Cl)CC2)nc1 | -4.65 |
| O=C(C=Cc1cc([N+](=O)[O-])ccc1Sc1ccc(C(F)(F)F)cn1)Nc1ccccc1 | -0.564 |
| N[C@@H](CSC(c1ccccc1)(c1ccccc1)c1ccccc1)C(=O)O [S-Trityl-L-cysteine] | -8.83 |
| Nc1nc(=S)c2ncn([C@@H]3O[C@H](CO)[C@@H](O)[C@H]3O)c2[nH]1 [Thioguanosine] | -17.6 |
| O=C1OC(CC(=O)c2csc3ccccc23)c2ccccc21 (configuration not stated) | -0.926 |
| O=C(Nc1ccc2[nH]nc(-c3ccncc3)c2c1)[C@@H]1CCN(CC(=O)N2CCN(c3ccc(-c4ncccn4)cc3)CC2)C1 | 2.92 |
| O=c1c(Cc2ccccc2Cl)c(-c2ccccc2)oc2ccccc12 | 0.207 |
| O=C(Nc1ccc(-n2nc(C(F)(F)F)cc2-c2cccs2)cc1)c1cccs1 | 0.29 |
| O=C(Nc1cccc(Cl)c1)Nc1ccc(Sc2ccccc2)nc1Sc1ccccc1 | -0.387 |
| Cn1ncc(C(=O)Nc2ccc(Cl)c(Cl)c2)c1[N+](=O)[O-] | 4.34 |
| COc1ccc(C(=O)C=C(C(=O)c2ccccc2)c2ccccc2)cc1CN1CCOCC1 | -3.5 |
| Cc1cc(C(=O)NOCCO)c(Nc2ccc(I)cc2F)n(C)c1=O | 5.84 |
